{
  "source": "paper PMC6919601",
  "about": "“Identification of Plasmodium dipeptidyl aminopeptidase allosteric inhibitors by high throughput screening” (PLoS ONE, 2019)",
  "note": "Out of some 110,000 compounds screened, about 230 (0.21%) showed an effect of 50% or more. The list shows a part of the results.",
  "data": [
    {"target": "DPAP1 (Plasmodium falciparum, UniProt Q8IIJ9)", "sequence (Q8IIJ9 whole entry, looked up)": "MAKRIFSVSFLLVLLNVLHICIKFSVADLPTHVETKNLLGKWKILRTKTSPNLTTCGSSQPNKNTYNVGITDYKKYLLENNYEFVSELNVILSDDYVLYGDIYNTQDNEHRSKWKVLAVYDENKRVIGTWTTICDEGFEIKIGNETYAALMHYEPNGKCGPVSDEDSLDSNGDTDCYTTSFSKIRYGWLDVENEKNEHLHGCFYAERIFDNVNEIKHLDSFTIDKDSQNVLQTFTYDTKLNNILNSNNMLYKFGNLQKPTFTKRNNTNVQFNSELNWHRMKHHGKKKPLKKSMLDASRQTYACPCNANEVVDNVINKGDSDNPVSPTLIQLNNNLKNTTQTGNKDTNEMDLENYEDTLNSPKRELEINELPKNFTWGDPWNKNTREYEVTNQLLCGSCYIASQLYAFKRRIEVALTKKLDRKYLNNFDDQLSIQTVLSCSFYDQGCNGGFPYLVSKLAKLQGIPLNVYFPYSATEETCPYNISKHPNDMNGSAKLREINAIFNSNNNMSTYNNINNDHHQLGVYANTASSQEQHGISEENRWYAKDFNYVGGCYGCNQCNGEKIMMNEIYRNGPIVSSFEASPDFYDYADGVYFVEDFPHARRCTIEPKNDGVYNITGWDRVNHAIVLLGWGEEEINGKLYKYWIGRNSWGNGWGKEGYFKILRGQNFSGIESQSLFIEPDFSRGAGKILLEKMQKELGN", "experiment": "primary screen, percent inhibition; read by cleavage of a fluorogenic dipeptide substrate; higher = more effect of the substance", "design": "species or system P. falciparum D10 trophozoite lysates; single well", "units": {"% Inhibition @ 10 uM": "%"}, "values": [
      {"molecule": "N#CCNC(=O)C(Cc1c(F)cccc1F)NC(=O)c1ccc(Oc2ccccc2)cc1", "note": "(centres unmarked);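 further: 30 min substrate incubation versus DMSO and 10 µM JCP410 controls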", "% Inhibition @ 10 uM": 1.61},
      {"molecule": "CCOc1ccccc1C1C(C#N)=C(N)Oc2c1c(C)nn2-c1ccccc1", "note": "(centres unmarked)", "% Inhibition @ 10 uM": -4.4},
      {"molecule": "Cc1ccc(-c2nc(CSCC(=O)NC(C)CCc3ccccc3)c(C)o2)cc1", "note": "(centres unmarked)", "% Inhibition @ 10 uM": 2.37},
      {"molecule": "O=C(O)CNC(=O)c1ccc(C23CC4CC(CC(C4)C2)C3)cc1", "% Inhibition @ 10 uM": -3.62},
      {"molecule": "CC(C)C[C@H](NC(=O)c1ccc(-c2ccc(O)cc2)cc1)C(=O)NCC#N", "% Inhibition @ 10 uM": 15.9},
      {"molecule": "CCOC(=O)Nc1ccc(-c2cccc(C(CS(=O)(=O)Cc3ccccc3)C(=O)NCC#N)c2)cc1", "note": "(centres unmarked)", "% Inhibition @ 10 uM": -7.21},
      {"molecule": "C=C(C)CSc1nc2nc(C)cc(C)n2n1", "% Inhibition @ 10 uM": -2.91},
      {"molecule": "Cc1ccc(S(=O)(=O)N(CC(=O)NC(C)(C)C)c2cc(C)ccc2C)cc1", "% Inhibition @ 10 uM": -7.28},
      {"molecule": "OCCC12CC3CC(C1)CC(CCO)(C3)C2", "% Inhibition @ 10 uM": -2.59},
      {"molecule": "COc1ccc(Cn2c(=O)c3cccnc3n(Cc3cc(=O)n4cc(Cl)ccc4n3)c2=O)cc1", "% Inhibition @ 10 uM": 1.72},
      {"molecule": "CCCCC(=O)Nc1ccc(C2C(=O)c3ccccc3C2=O)cc1", "% Inhibition @ 10 uM": -2.32},
      {"molecule": "Cc1ccccc1Cn1cc(NC(=O)C2CC2)cn1", "% Inhibition @ 10 uM": 11},
      {"molecule": "CCN(c1ccccc1)S(=O)(=O)c1ccc(NC(=O)c2cccs2)cc1", "% Inhibition @ 10 uM": -0.132},
      {"molecule": "COc1c(C(=O)NCCSc2ccccn2)ccc2ccccc12", "% Inhibition @ 10 uM": 2.72},
      {"molecule": "COCCN1C(=O)/C(=C/c2ccc3c(c2)OCO3)S/C1=N\\c1ccccc1", "% Inhibition @ 10 uM": 4.08},
      {"molecule": "Cc1ccc(-c2cc(C(=O)NC(C)C)c3ccccc3n2)cc1C", "% Inhibition @ 10 uM": -0.519},
      {"molecule": "COc1ccc(-c2cn3nc4c(nc3n2)CCCC4)cc1", "% Inhibition @ 10 uM": 5.35},
      {"molecule": "CC1CCC(N2CCCn3c2nc2c3c(=O)n(C)c(=O)n2C)CC1", "note": "(centres unmarked)", "% Inhibition @ 10 uM": -6.2},
      {"molecule": "c1ccc(-c2cc(NCc3ccco3)n3cnnc3n2)cc1", "% Inhibition @ 10 uM": -2.57},
      {"molecule": "COc1ccc(N(CC(=O)NC2CCCC2)S(=O)(=O)c2ccc(C)cc2)cc1Cl", "% Inhibition @ 10 uM": -0.46},
      {"molecule": "CCOc1ccc(N(CC(=O)N2CCCCCC2)S(=O)(=O)c2ccc(C)cc2)cc1", "% Inhibition @ 10 uM": 4.41},
      {"molecule": "COc1cc(NC(=O)c2ccc(Cn3nc(C)c(Br)c3C)o2)cc(OC)c1OC", "% Inhibition @ 10 uM": 5.59},
      {"molecule": "Cc1ccc(C(=O)c2ccc(Oc3ccccc3)cc2)cc1C", "% Inhibition @ 10 uM": -11},
      {"molecule": "O=C1c2ccccc2C(=O)N1CC1c2ccccc2CCN1C(=O)C12CC3CC(CC(C3)C1)C2", "note": "(centres unmarked)", "% Inhibition @ 10 uM": -3.41},
      {"molecule": "CN1C(=O)NC(=O)/C(=C\\c2ccc(OCc3ccc(C(=O)O)cc3)c(Br)c2)C1=O", "% Inhibition @ 10 uM": -2.26},
      {"molecule": "CCN1CCN(C(=O)c2ccc(F)cc2)CC1", "% Inhibition @ 10 uM": 2.65},
      {"molecule": "O=C(O)/C=C\\C(=O)Nc1ccc(-c2ccccc2)cc1", "% Inhibition @ 10 uM": 1.23},
      {"molecule": "O=C(O)c1ccccc1C(=O)Nc1ccc(Br)c(Cl)c1", "% Inhibition @ 10 uM": -4.35},
      {"molecule": "CCOc1cc(Br)c(C2C(C#N)=C(N)OC3=C2C(=O)CC(C)(C)C3)cc1OCC", "note": "(centres unmarked)", "% Inhibition @ 10 uM": -1.07},
      {"molecule": "CCSc1nnc(NC(=O)c2cnc(SC)nc2-c2ccccc2)s1", "% Inhibition @ 10 uM": 2.25},
      {"molecule": "Cc1cccc(NC(=O)CC2S/C(=N/c3ccc(F)cc3)N(C)C2=O)c1", "note": "(centres unmarked)", "% Inhibition @ 10 uM": -0.622},
      {"molecule": "CC(C)(C)CC(=O)NCc1cn2ccsc2n1", "% Inhibition @ 10 uM": 3.94},
      {"molecule": "Cc1cc(C)c(-c2[nH]nc3c2C(c2cccc(O)c2)N(CCCO)C3=O)c(O)c1", "note": "(centres unmarked)", "% Inhibition @ 10 uM": 3.27},
      {"molecule": "Cc1ccccc1S(=O)(=O)Cc1ccc(C(=O)NCCCN(C)Cc2ccccc2)o1", "% Inhibition @ 10 uM": -4.53},
      {"molecule": "O=C(NCC1CCCCC1)c1nnc(O)c2ccccc12", "% Inhibition @ 10 uM": 9.78},
      {"molecule": "CC1(C)CC(NC(=O)c2cccc(F)c2)CC(C)(C)N1", "% Inhibition @ 10 uM": -1.33},
      {"molecule": "CCOc1ccccc1NC(=O)C1CC(=O)N(c2ccc(C)cc2)C1", "note": "(centres unmarked)", "% Inhibition @ 10 uM": 8.94},
      {"molecule": "O=C(NC1CCCCCC1)C1c2ccccc2C(=O)N2CCCCC12", "note": "(centres unmarked)", "% Inhibition @ 10 uM": 4.01},
      {"molecule": "O=C(Nc1ccccc1)NC1CCCCCC1", "% Inhibition @ 10 uM": -1.22},
      {"molecule": "COc1cc(Br)c(C(C)NC(=O)c2ccccc2)cc1OC", "note": "(centres unmarked)", "% Inhibition @ 10 uM": 1.83},
      {"molecule": "CC(=O)c1ccc(NC(=O)c2sc3nc4c(cc3c2N)CCCC4)cc1", "% Inhibition @ 10 uM": -0.545},
      {"molecule": "COc1cc(C2Nc3ccccc3N=C3CC(c4ccccc4)CC(O)=C32)cc(OC)c1O", "note": "(centres unmarked)", "% Inhibition @ 10 uM": -7.4},
      {"molecule": "COCc1cc(C2C(C#N)=C(N)OC3=C2C(=O)CCC3)ccc1OC", "note": "(centres unmarked)", "% Inhibition @ 10 uM": -5.48},
      {"molecule": "Cc1cccc(CNS(=O)(=O)c2ccc(-c3ccc(O)nn3)s2)c1", "% Inhibition @ 10 uM": -6.64},
      {"molecule": "CN(CCc1ccccn1)Cc1ccc2ccccc2c1", "% Inhibition @ 10 uM": -1.62},
      {"molecule": "Cc1ccc2occ(CC(=O)Nc3sc4c(c3C(=O)NCC3CCCO3)CCC4)c2c1", "note": "(centres unmarked)", "% Inhibition @ 10 uM": -2.4},
      {"molecule": "COc1ccc(OC)c(NC(=O)Cn2nc(C(F)(F)F)cc2C2CC2)c1", "% Inhibition @ 10 uM": -3.72},
      {"molecule": "Oc1cc(-c2ccccc2)nc2nc(CCc3ccccc3)nn12", "% Inhibition @ 10 uM": 1},
      {"molecule": "COc1cc2c(C(=O)c3ccc(Br)cc3)c(C)oc2c2ccccc12", "% Inhibition @ 10 uM": 1.41},
      {"molecule": "COC(=O)c1ccc(C2NC(=O)c3[nH]nc(-c4cccc(OC)c4)c32)cc1", "note": "(centres unmarked)", "% Inhibition @ 10 uM": -3.35}
    ]}
  ]
}
